Source: PMC4336329 (PLoS ONE, 2015)
In all, about 310,000 compounds went through this assay and about 2,200 (0.71%) showed an effect of 50% or more. The effect is printed as a negative number. This is one part of the list.

Each compound was assayed against human ether-à-go-go-related gene (hERG) potassium channel (human, UniProt Q12809) (assay: primary screen, population patch clamp on CHO cells stably expressing hERG).
Sequence of human ether-à-go-go-related gene (hERG) potassium channel (Q12809 whole entry, looked up): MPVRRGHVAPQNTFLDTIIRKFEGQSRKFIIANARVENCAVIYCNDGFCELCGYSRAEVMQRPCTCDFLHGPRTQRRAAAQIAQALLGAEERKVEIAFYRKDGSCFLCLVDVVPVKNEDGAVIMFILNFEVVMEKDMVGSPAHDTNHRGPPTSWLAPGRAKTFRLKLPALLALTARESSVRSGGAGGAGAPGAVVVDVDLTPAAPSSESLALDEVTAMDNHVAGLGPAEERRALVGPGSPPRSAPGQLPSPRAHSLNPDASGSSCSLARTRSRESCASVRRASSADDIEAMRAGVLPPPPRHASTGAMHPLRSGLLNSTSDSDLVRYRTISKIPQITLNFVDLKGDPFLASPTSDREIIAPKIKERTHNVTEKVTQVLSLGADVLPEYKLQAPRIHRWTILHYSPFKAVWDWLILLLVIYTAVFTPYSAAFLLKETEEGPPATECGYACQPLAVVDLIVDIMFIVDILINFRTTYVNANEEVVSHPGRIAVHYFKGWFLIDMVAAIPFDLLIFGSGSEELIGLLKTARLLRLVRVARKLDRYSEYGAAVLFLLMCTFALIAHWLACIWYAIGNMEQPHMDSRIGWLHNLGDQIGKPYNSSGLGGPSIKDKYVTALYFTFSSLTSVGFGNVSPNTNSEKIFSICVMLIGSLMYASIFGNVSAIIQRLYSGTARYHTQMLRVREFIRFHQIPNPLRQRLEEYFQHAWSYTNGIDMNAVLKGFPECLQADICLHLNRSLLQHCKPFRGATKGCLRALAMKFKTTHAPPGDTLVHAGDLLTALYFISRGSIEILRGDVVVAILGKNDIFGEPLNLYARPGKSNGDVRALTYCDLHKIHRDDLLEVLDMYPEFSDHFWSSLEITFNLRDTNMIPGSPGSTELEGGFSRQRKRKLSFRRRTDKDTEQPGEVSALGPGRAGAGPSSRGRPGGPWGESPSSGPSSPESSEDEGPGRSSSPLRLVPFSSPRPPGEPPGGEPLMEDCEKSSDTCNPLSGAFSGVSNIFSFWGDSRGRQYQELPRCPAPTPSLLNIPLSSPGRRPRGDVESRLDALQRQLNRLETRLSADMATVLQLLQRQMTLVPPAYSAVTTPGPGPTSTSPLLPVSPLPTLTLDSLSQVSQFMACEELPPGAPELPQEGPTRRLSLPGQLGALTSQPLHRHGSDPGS

SMILES | hERG current change (%, negative = inhibition) at 1uM
O=C(COc1ncnc2c1cnn2-c1ccccc1)Nc1ccc(S(=O)(=O)N2CCCCC2)cc1 | -1.32%
O=S(=O)(CCCc1ccccc1)c1ncn[nH]1 | 13.9%
CCOc1nc(OCC)nc(N2CCC(C)CC2)n1 | 4.4%
CCCCN(C(=O)C1CCC1)c1c(N)n(CC(C)C)c(=O)[nH]c1=O | 8.99%
COc1ccc(Cn2c(-c3ccc(Cl)cc3)c[n+]3ccccc23)cc1.[Br-] | 1.57%
Cn1c(=O)cc(OCC(=O)NCCCN2CCN(c3ccccc3F)CC2)c2ccccc21 | -10.2%
O=C(CSc1nnc(NC(=O)c2ccccc2F)s1)NCC1CCCO1 (stereo not drawn) | 7.71%
COc1ccc(-n2c(=S)[nH]c3cc(C(=O)N4CCN(c5ccccc5)CC4)ccc3c2=O)c(OC)c1 | 19.9%
CCOc1ccc(NC(=O)CN(C)C(=O)CCCOc2ccc(Cl)c(C)c2)cc1OCC | 5.83%
O=C(Nc1nnc(C(F)(F)F)s1)c1ccc(N2C(=O)C3C4C=CC(C4)C3C2=O)cc1 (stereo not drawn) | 7.41%
CC1CCCN(C(c2ccccc2)c2sc3ncnn3c2O)C1 (stereo not drawn) | 12.8%
CCCCCCCCCCOC(=O)Cn1c(COc2ccc(C)cc2)[n+](C)c2ccccc21.[Cl-] | -56.5%
CCOC(=O)c1nnc(-c2ccccc2)o1 | -4.02%
O=C(Nc1ccc(C(=O)N2CCCC2)cc1)c1ccccc1Br | 20.4%
COc1ccc(/C=c2\s/c(=C/C(=O)c3ccc(C)cc3)[nH]c2=O)cc1OC | 10%
N#CC1=C(N)Oc2n[nH]c(-c3ccccc3)c2C1c1ccncc1 (stereo not drawn) | 18.9%
CC(OC(=O)c1cccc(-n2cnnn2)c1)C(=O)Nc1ccc(N(C)C)cc1 (stereo not drawn) | 8.23%
O=C1NCCCC2c3c(cc(Br)c(O)c3Br)OC12N1CCOCC1 (stereo not drawn) | -6.36%
COc1cc2c(cc1OC)C(c1ccc(SC)cc1)CC(=O)N2 (stereo not drawn) | -0.0781%
COc1ccc(NC(=O)CCc2ccccc2)cc1S(=O)(=O)N1CCOCC1 | 5.25%
CCN1C(=O)/C(=C2\SC(=S)N(NC(=O)c3ccccc3O)C2=O)c2ccccc21 | 9.82%
COC(=O)c1sc2nc(C)nc(SCC(=O)Nc3sccc3C(N)=O)c2c1C | 9.11%

SMILES | hERG current change (%, negative = inhibition) at 1uM
CCN1C(=O)N(CC)C2C1N(C(C)=O)C(=O)N2C(C)=O (stereo not drawn) | 1.09%
CC1(C)CC(N=C2C([N+](=O)[O-])=CC=C3C2=NC2(CCCCC2)N3O)CC(C)(C)N1 | 11.6%
COc1ccc(C(=O)N2CCN(c3ncccn3)CC2)cc1[N+](=O)[O-] | 12.1%
O=[N+]([O-])c1cc(S(=O)(=O)N2CCCCCC2)ccc1F | 10.1%
Cc1c(C)c(C)c(S(=O)(=O)Nc2ccc3[nH]c(=O)[nH]c3c2)c(C)c1C | 15.6%
COc1ccc(Cl)cc1CN1C(=O)NC2(CCCCCC2)C1=O | -0.308%
O=C(CCc1nc2ccccc2c(=O)[nH]1)Nc1ccccc1N1CCCC1 | 6.4%
COc1ccccc1C(=O)NCCCn1cc(Br)c(C)n1 | -5.05%
COCCNc1oc(COc2cccc(C)c2)nc1C#N | 7.52%
Cc1cnc(C(=O)NC(C)CCc2ccccc2)cn1 (stereo not drawn) | 10.4%
COc1ccc(NC(=S)N2CCC(NC(=O)C3CCCCC3)CC2)cc1 | 5.77%
O=S(=O)(Nc1cccnc1)c1ccc(Cl)cc1 | 14.4%
O=C(CSc1nc(-c2ccc(F)cc2)cc(C(F)(F)F)n1)NCCN1CCOCC1 | 2.93%
COc1cccc(N2CCN(C(=O)CN(c3ccc(C)cc3)S(=O)(=O)c3c(C)n[nH]c3C)CC2)c1 | 5.03%
O=C1C(=C2SCCCS2)CC/C1=C\c1ccc(F)cc1 | 10.6%
COC(=O)C1(CC2CC(c3ccc(Cl)cc3)=NO2)CCN(C(=O)OC(C)(C)C)CC1 (stereo not drawn) | 10.4%
COCc1nnc(NC(=O)c2ccc(Cl)cc2[N+](=O)[O-])s1 | 15%
Cc1ccc(CN2CCNC(=O)C2CC(=O)NCc2cc(C)n(C)n2)cc1 (stereo not drawn) | 5.48%
Cc1cccnc1NC(=O)c1cccc(S(=O)(=O)N2CCCc3ccccc32)c1 | 7.18%
Cc1nn(C)c(Oc2ccccc2)c1CCNC(=O)C(C)(C)C | 7.31%
COc1ccccc1-c1nc(NC(C)=O)n[nH]1 | 19%
COc1ccc(OC)c(S(=O)(=O)NC(N)=NCCc2ccccc2OC)c1 | 5.24%

SMILES | hERG current change (%, negative = inhibition) at 1uM
O=C(C1CCN(S(=O)(=O)c2ccccc2)CC1)N1CCC2(CC1)OCCO2 | 8.95%
CCOc1ccc(CC(=N)C2=C(O)CC(C)(C)CC2=O)cc1OCC | 3.14%
O=C(CNS(=O)(=O)c1c(Cl)cccc1Cl)OCC(=O)N1CCN(c2ccccc2)CC1 | -3.73%
COCCN(C(=O)CCc1nnc(Cc2c[nH]c3ccccc23)o1)C(C)C | 8.01%
O=C(c1[nH]nc2c1CCc1ccccc1-2)N1CCN(Cc2ccc3c(c2)OCO3)CC1 | 4.73%
c1ccc(-c2csc3ncnc(N4CCN(Cc5ccc6c(c5)OCO6)CC4)c23)cc1 | -34.4%
COc1cc(NC(=O)c2cc([N+](=O)[O-])ccc2N2CCOCC2)ccc1NC(=O)c1ccco1 | 13.9%
COc1ccc(Br)cc1C(=O)Nc1ccc(C(=O)O)cc1 | 11.3%
Cc1cc2oc(=O)cc(-c3cc4ccccc4o3)c2cc1OC(=O)N(C)C | 13.9%
Fc1ccccc1-c1n[nH]c(=S)n1CC1CCCO1 (stereo not drawn) | 8.95%
O=C(OCc1cncs1)c1ccccc1Cl | 13.9%
CCC(Sc1nc(-c2ccccc2)cc(=O)[nH]1)C(=O)O (stereo not drawn) | 7.62%
CCOc1ccccc1N1CC(O)=C(c2nc3ccccc3s2)C1=N | 5.48%
CN(C1CCS(=O)(=O)C1)S(=O)(=O)c1ccccc1 (stereo not drawn) | 7.41%
COc1ccccc1NC(=O)CSc1nc2ccccc2c(=O)n1CC1CCCO1 (stereo not drawn) | 11.9%
Fc1ccc(CSc2nc3ccccc3[nH]2)cc1 | 5.01%
Cc1ccc(CN2CC(C(=O)N3CC(C)CC(C)C3)CC2=O)cc1 (stereo not drawn) | 1.46%
Cc1ccc(Nc2ncnc(-n3cccc3)n2)cc1Cl | 10.7%
Cc1[nH]nc(-c2ccc(O)cc2O)c1Oc1ccccc1 | -1.62%
FC(F)(F)c1ccc(N2CCN(c3cc(-c4ccccc4)nc4ncnn34)CC2)nc1 | -15.2%
O=C(O)c1ccccc1-n1cccc1C(=O)O | 12.4%
CC1C(=O)Nc2ccc(S(=O)(=O)N3CCc4ccccc4C3)cc2NC1=O (stereo not drawn) | 12.5%

SMILES | hERG current change (%, negative = inhibition) at 1uM
Cc1ccc(S(=O)(=O)NCCc2cccs2)cc1 | 5.09%
COc1ccc(NC(=O)c2cccc(C(=O)Nc3ccc(OC)cc3)n2)cc1 | 6.45%
Cc1ccc(C(=O)Nc2cc3ccccc3oc2=O)cc1 | 8.27%
O=C1CCCCN1CC(=O)N1CCCC(Nc2ccc(F)c(F)c2)C1 (stereo not drawn) | 12.4%
Cc1sc(NC(=O)CCCC(=O)O)c(C(N)=O)c1-c1ccccc1 | 12.8%
Cc1ccc(NC(=O)C2CCCN2S(=O)(=O)c2ccc3c(c2)n(C)c(=O)c(=O)n3C)cc1C (stereo not drawn) | 8.33%
O=C(Cn1nc(-c2ccc3c(c2)OCCO3)ccc1=O)Nc1cccc(NC(=O)c2ccccn2)c1 | 8.06%
Oc1ccc2ccccc2c1CNc1ccc(Br)cc1 | 14.4%
O=C(Cc1c(F)cccc1Cl)Nc1ccc(S(=O)(=O)N2CCCC2)cc1 | 11.8%
Cc1cc(C)c(OCC(=O)N(Cc2ccc(N(C)C)cc2)C2CCS(=O)(=O)C2)c(C)c1 (stereo not drawn) | 4.02%
O=C(COc1ccccc1)N1CCN(c2ncccn2)CC1 | 10.1%
Cc1cc(C)c(S(=O)(=O)n2ccc(-c3ccc(OCCN(C)c4ccccn4)cc3)n2)c(C)c1 | 14%
COc1ccc(CCNC(=O)c2ccc3c(c2)NC(=O)C(N2CCOCC2)S3)cc1OC (stereo not drawn) | 11.3%
O=C(CC1CCCCC1)NCCS(=O)(=O)N1CCN(c2ccccc2)CC1 | 18.9%
CS(=O)(=O)N(CC(=O)Nc1cc(Cl)ccc1Cl)c1ccccc1Cl | 8.34%
CCOC(=O)CN1C(=O)S/C(=C/c2ccc3c(c2)n(C)c(=O)n3C)C1=O | 9.23%
O=C(NCc1ccccc1Cl)c1ccc(CS(=O)Cc2ccc(Cl)cc2)o1 (stereo not drawn) | -0.612%
Cn1c(=O)n(C)c2cc(NC(=O)c3ccc(F)cc3)ccc21 | 17%
CN(C)S(=O)(=O)c1cccc2c1C(=O)c1ccccc1C2=O | 3.58%
Cc1ccc(-c2n[nH]c(=O)c3ccccc23)cc1S(=O)(=O)N(C)C | 14%
Cn1c2ccccc2c2nnc(SCC(=O)Nc3cccc(C(=O)O)c3)nc21 | 11.8%
